# Article PMC4336329 (PLoS ONE, 2015)
# Out of some 310,000 compounds screened, about 14,000 (4.5%) showed an effect of 50% or more. The effect is printed as a negative number. The list shows a part of the results.
# Target: human ether-à-go-go-related gene (hERG) potassium channel (human, UniProt Q12809)
# Assay: primary screen, population patch clamp on CHO cells stably expressing hERG
# 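Further: peak tail current of the secondary pulse compared with the same well before compound.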
# Sequence of human ether-à-go-go-related gene (hERG) potassium channel (Q12809 whole entry, looked up): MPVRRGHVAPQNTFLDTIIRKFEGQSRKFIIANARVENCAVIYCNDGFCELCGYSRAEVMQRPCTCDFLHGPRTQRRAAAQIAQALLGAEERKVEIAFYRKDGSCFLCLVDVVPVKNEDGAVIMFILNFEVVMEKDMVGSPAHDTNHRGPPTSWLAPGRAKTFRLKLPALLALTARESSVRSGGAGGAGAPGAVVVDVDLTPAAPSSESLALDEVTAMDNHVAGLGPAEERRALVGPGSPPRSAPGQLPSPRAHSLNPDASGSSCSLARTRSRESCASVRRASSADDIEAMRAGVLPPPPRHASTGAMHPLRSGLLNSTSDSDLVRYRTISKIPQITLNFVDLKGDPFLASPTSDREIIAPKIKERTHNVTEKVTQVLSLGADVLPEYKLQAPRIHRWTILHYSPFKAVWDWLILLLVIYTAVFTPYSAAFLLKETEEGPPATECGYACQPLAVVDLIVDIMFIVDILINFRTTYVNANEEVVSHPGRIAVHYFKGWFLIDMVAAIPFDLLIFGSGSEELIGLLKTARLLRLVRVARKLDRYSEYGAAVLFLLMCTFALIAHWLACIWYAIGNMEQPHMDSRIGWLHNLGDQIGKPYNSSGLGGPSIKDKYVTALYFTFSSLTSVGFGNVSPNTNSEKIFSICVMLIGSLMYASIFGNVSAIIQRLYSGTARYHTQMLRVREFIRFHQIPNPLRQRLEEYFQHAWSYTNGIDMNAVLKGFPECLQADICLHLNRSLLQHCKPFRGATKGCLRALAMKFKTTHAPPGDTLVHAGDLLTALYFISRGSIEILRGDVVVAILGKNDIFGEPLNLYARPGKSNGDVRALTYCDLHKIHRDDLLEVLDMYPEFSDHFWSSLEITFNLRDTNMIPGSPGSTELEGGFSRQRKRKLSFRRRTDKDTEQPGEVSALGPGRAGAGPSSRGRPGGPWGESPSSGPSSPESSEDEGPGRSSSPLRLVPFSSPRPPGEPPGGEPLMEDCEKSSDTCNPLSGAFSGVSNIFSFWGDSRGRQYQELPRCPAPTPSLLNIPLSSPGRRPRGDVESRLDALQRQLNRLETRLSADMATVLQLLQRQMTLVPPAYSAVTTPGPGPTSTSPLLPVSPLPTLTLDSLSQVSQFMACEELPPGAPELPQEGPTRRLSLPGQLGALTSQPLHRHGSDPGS
row,Structure (SMILES),"hERG current change (%, negative = inhibition) at 10uM"
1,CCOC(=O)CSc1nnc(NC(=O)c2ccc3c(c2)OCO3)s1,7.58%
2,COC(=O)c1ccc(CN2C(=O)c3ccccc3C2=O)o1,23.2%
3,Cc1ccc(S(=O)(=O)Nc2cc(C)c(O)c(S(=O)(=O)c3ccc(C)cc3)c2)cc1,-27.6%
4,Cn1nnnc1SCC(=O)N1CCOCC1,16.2%
5,O=C(O[C@@H](C(=O)O)[C@@H](OC(=O)c1ccccc1)C(=O)O)c1ccccc1,15.9%
6,CCCCOC(=O)C1[C@H]2C(=O)N(CCc3ccccc3)C[C@]23C=C[C@H]1O3 (stereo partly shown),0.875%
7,CCOC(=O)Cc1nn[nH]n1,32.3%
8,O=C(c1cccc(Cl)c1)N1CCN(Cc2ccc3c(c2)OCO3)CC1,-16.6%
9,Nc1nc(Cl)cc(-c2ccccc2)n1,-4.54%
10,O=C(CNC(=O)c1cccc(Br)c1)N/N=C/c1cccs1,11.4%
11,Nc1ccc2c(C(F)(F)F)cc(C(F)(F)F)nc2n1,8.38%
12,O=C(CCC(=O)Nc1ccccc1)N/N=C/c1cccnc1,11.5%
13,C=CCn1c(SCC(=O)Nc2sc3c(c2C#N)CCC3)nnc1C1COc2ccccc2O1 (stereo not shown),4.66%
14,CCn1c2ccccc2c2nnc(SCC(N)=O)nc21,4.23%
15,Cc1nc(NC(=O)CSc2nnc(-c3ccncc3)n2C)sc1C,28.2%
16,CCOC(=O)c1cccc(NC(=O)CSc2nnc(COc3ccc(Cl)cc3)o2)c1,16.3%
17,CN1CCN(C(=O)/C(=C/c2ccco2)NC(=O)c2ccccc2)CC1,-67.6%
18,CCCOC(=O)C1NC(=O)N2C(C(=O)OCCC)C(C)(C)S[C@H]12 (stereo partly shown),13.5%
19,O=C(NC1CCCCC1)C(c1ccccc1)N(C(=O)c1csnn1)C1CC1 (stereo not shown),8.74%
20,Cc1c(/C=N/NC(=O)c2ccc(Br)o2)cnn1C,21%
21,CCC(C)(C)NC(=O)C(c1ccc(O)cc1)N(Cc1ccco1)C(=O)CCC(=O)Nc1ccccn1 (stereo not shown),9.85%
22,CSc1nc2nc(-c3ccccc3)cc(C(F)(F)F)n2n1,-3.06%
23,O=C(Cn1nnc2ccccc2c1=O)N1CCOCC1,-3.77%

row,Structure (SMILES),"hERG current change (%, negative = inhibition) at 10uM"
1,Cc1cc(C)c(S(=O)(=O)Nc2nnc(C3CCCCC3)s2)c(C)c1,9.52%
2,O=C(CCc1ccccc1)Nc1ncc2c(n1)CCCC2=O,-15.6%
3,Cc1ccccc1-c1nc(CS(=O)(=O)CC(=O)NC2CCCCC2C)c(C)o1 (stereo not shown),-9.77%
4,CCN(CC)S(=O)(=O)c1ccc(OCC2CCCCO2)c([N+](=O)[O-])c1 (stereo not shown),-12.6%
5,COc1cccc(NC(=O)CN(C)C(=O)c2ccc3c(c2)CC(c2ccccc2)OC3=O)c1 (stereo not shown),-66.9%
6,COc1ccc(C(=O)COC(=O)CNS(=O)(=O)c2ccc(C)cc2)cc1,3.56%
7,COC(=O)c1c(-c2ccc(OC)cc2)oc2ccc(-c3cc(OC)c(OC)c(OC)c3)cc12,8.8%
8,CC(NCC(O)COc1ccccc1)C1COc2ccccc2O1 (stereo not shown),-46.7%
9,COc1ccc2ccccc2c1/C=N/Nc1ccc(Cl)c(C(=O)O)c1,15.8%
10,COc1ccccc1C(=O)NC1CCCc2ccccc21 (stereo not shown),-2.04%
11,Cc1ccc(-c2noc(C3CCCN(C(=O)c4ccc(F)cc4F)C3)n2)cc1 (stereo not shown),-28.9%
12,CNC(=O)c1ccc(OCc2ccccc2)c(OC)c1,3.11%
13,Cc1cc(C(=O)Nc2ccc(S(=O)(=O)Nc3onc(C)c3C)cc2)c(C)o1,4.88%
14,C/C(=N\NC(=O)c1nnn(-c2nonc2N)c1CN1CCCCCC1)c1ccc(Br)cc1,24.6%
15,O=C(CCSc1ccccc1)N1CCCC1,10.9%
16,Cc1nc(NC(=O)C(Cl)Cl)sc1C(=O)N(C)C,5.44%
17,COc1cc(NC(=S)N2CCCC(C)C2)cc(OC)c1OC (stereo not shown),16.8%
18,Cc1ccsc1C(=O)Nc1nnc(-c2ccco2)o1,8.69%
19,O=C(O)[C@H](Cc1ccccc1)NC(=O)N1CCC(Cc2ccccc2)CC1,-3.47%
20,Cc1nc(NC(N)=S)sc1C(=O)Nc1ccccc1,5.18%
21,CC(C)COc1ccc(-c2nn(-c3ccccc3)cc2C(=O)Nc2nccs2)cc1,13.9%
22,O=C(CSc1nn(-c2ccc(Cl)cc2)c(=S)s1)N1CCN(C(=O)c2ccco2)CC1,-70.5%
23,CC(C)CC(=O)Nc1cc2c3c(c1)CCN3C(=O)CC2,4.15%

row,Structure (SMILES),"hERG current change (%, negative = inhibition) at 10uM"
1,O=C(COc1c(Br)cc(Br)cc1Br)N/N=C/c1ccco1,14.2%
2,CC(C)(C#N)NC(=O)c1ccco1,4.37%
3,CCOc1ccc(Oc2ccc(Cl)cc2N)cc1.Cl,2.9%
4,COc1ccc(NC(=O)Cn2c(=O)n(-c3ccc(OC)cc3OC)c(=O)c3c(C)c(C)sc32)cc1,-6.58%
5,Cc1c(N/C=C/C(=O)c2cccs2)c(=O)n(-c2ccccc2)n1C,-11%
6,COc1ccc(N=C2SCC(c3ccc(C)cc3)=NN2CCO)cc1,-9.63%
7,O=C(CNCC1CCCCC1)Nc1ccc(N2CCCCC2)cc1.O=C(O)C(=O)O,-17.3%
8,Cc1cc(C)n(-c2nc3ccccc3c(=O)n2OCC(N)=O)n1,10.4%
9,CCOc1cc(/C=C2\C(=O)NN(c3ccccc3)C2=O)cc([N+](=O)[O-])c1O,33%
10,Cc1cc(NC(=O)CSc2nc(N)c(NC(=O)c3ccc(F)c(F)c3)c(=O)[nH]2)no1,21.4%
11,CNc1nc(N)nc(-c2cc(Cl)ccc2OC)n1,18.7%
12,O=C(Nc1ccccc1)Nc1ccc(Oc2cccnc2)nc1,-4.77%
13,CC1(C)CC2CC(C)(CN2C(=O)NC(=O)c2ccccc2)C1 (stereo not shown),-7.68%
14,CN(C)c1cccc(C(=O)OCC(=O)NCc2ccco2)c1,-2.26%
15,Cc1ccc(CSc2nc3ccncc3[nH]2)cc1,-32.9%
16,COc1ccccc1NC(=O)NCc1ccco1,16.1%
17,CC(=O)N1CCN(c2ccc(NC(=O)c3cc4ccccc4o3)cc2)CC1,-24.5%
18,CCn1c(=O)cc(SCC(=O)Nc2cccc(C)n2)c2ccccc21,8.79%
19,COc1ccc(-c2cc(-c3nnc(-c4ccncc4)o3)c3ccccc3n2)cc1,-1.08%
20,O=C(NCc1ccco1)c1ccc(COc2ccccc2Cl)cc1,1.04%
21,COC(=O)c1ccc(Oc2nc(C)cc(Oc3ccccc3)n2)cc1,-13.8%
22,Cc1cc(C)n2nc(C(=O)NCc3ccco3)cc2n1,10.4%
23,COc1ccc(-n2c(SCC(=O)NNC(=O)c3ccccc3C)nnc2-c2ccncc2)cc1,-7.21%

row,Structure (SMILES),"hERG current change (%, negative = inhibition) at 10uM"
1,COc1ccc(Cl)cc1NC(=O)CSc1nnc(COc2ccccc2)n1C,-57.3%
2,COc1ccc(-n2nnc3c(=O)n(Cc4cc(C)ccc4C)cnc32)cc1,-0.607%
3,Cc1ccccc1Nc1nc(N)nc(CN(C)c2ccccc2)n1,3.75%
4,CN(C)S(=O)(=O)Oc1ccc(C(=O)Nc2ccc([N+](=O)[O-])cc2)cc1,-2.27%
5,Nc1nc(-c2ccc(S(=O)(=O)N3CCCCC3)cc2)cs1,-2.15%
6,CCSC1=C(C#N)C(c2ccc3c(c2)OCO3)C2=C(CCCC2=O)N1 (stereo not shown),-23.4%
7,O=C(O)c1sccc1S(=O)(=O)N1CCOCC1,18.7%
8,Cc1cccc(N(C)C(=O)c2cc3c(=O)[nH]c4ccc(C)cc4c3s2)c1,6.58%
9,CS(=O)(=O)N1CCn2c1nc1ccccc12,4.59%
10,Cc1ccc(CNS(=O)(=O)c2ccc(Br)s2)cc1,15.6%
11,O=C(COc1ccc(-c2nnco2)cc1)NC1CCCc2ccccc21 (stereo not shown),-19.2%
12,CC(C)(C)c1cnnn1-c1cccc([N+](=O)[O-])c1,10.6%
13,CN(Cc1ccc(Cl)cc1)C(=O)CNC(=O)C12CC3CC(CC(C3)C1)C2,-21%
14,CN(CC(=O)Nc1ccc(N2CCOCC2)cc1)C(=O)C12CC3CC(CC(C3)C1)C2,0.894%
15,COC(=O)c1ccc(N2C(=O)CC(N3CCOCC3)C2=O)cc1 (stereo not shown),-21.5%
16,FC(F)(F)c1ccc(/C=N/N2CCN(Cc3ccccc3)CC2)cc1,-4.09%
17,O=C(CN(Cc1ccccc1)C(=O)CNS(=O)(=O)c1ccc(F)cc1)NCc1ccco1,-16.2%
18,CC(=O)c1ccc(OCCCOc2cccc3cccnc23)cc1,-4.98%
19,O=C(c1ccc(Sc2ccc(F)cc2)c([N+](=O)[O-])c1)N1CCOCC1,-18.5%
20,Cc1ccc(OCc2cnc(Cl)s2)c(C)c1,16.9%
21,CCCCCOc1ccc(NC(=O)c2cc(SC)ccc2Cl)cc1,4.24%
22,Cc1cc(NC(=O)CN2CC(C)OC(C)C2)n(-c2nc3ccccc3s2)n1 (stereo not shown),16.1%
